Assay results as given in ChEMBL document CHEMBL4888484, “Replenishing the malaria drug discovery pipeline: Screening and hit evaluation of the MMV Hit Generation Library 1 (HGL1) against asexual blood stage Plasmodium falciparum ,using a nano luciferase reporter read-out” (2022).
In all, about 4,800 compounds went through this assay and about 410 (8.5%) showed an effect of 50% or more. The list shows a part of the results.

These compounds were tested on Plasmodium falciparum (assay: Confirmatory screen in NF54 pLDH assay, in single point, at 2uM, 72h). Settings: timepoint 72 hour.
Assay type: functional, Erythrocyte

Structure (SMILES) | % Inhibition [%]
COc1ccc(C(=O)n2[nH]c(=O)c(CCO)c2C)cc1 | 5
Nc1noc2cc(C(F)(F)F)cnc12 | 9
c1ccc(-c2cccnc2NCc2cscn2)cc1 | -3
COc1ccc(NC(=O)Cc2c(C)nn(-c3nc(C)cs3)c2O)c(OC)c1 | 5
O=C(O)Cc1ccc(OCc2nnc(-c3ccccc3)s2)cc1 | 5
CN(c1ccc(Cl)cn1)S(=O)(=O)c1ccc2ncccc2c1 | -14
O=c1cc(-c2ccccc2)n(S(=O)(=O)c2ccccc2)o1 | -7
Cc1cnn(-c2ccncc2NS(C)(=O)=O)c1 | -18
CN(C(=O)C1C(C(=O)O)C1(C)C)c1ccccc1OC(F)F (stereo not drawn) | 2
Cc1cnc(-n2cnnc2)c(-c2ccc(S(C)(=O)=O)cc2)c1 | -1
CC(C)n1nccc1N1C(=O)N[C@@H](CC(F)(F)F)C1=O | 0
O=C(CN1C(=O)COc2ccccc21)N1CCC[C@H](c2nc3ccccc3s2)C1 | -13
Cc1c(N2CCN(C(=O)c3ccc(F)cc3)CC2)c(=O)n(C)c(=O)n1C | 7
CCOC(=O)CNc1ccc(F)c(Cl)c1 | -3
Cc1ccc(C(F)(F)C(=O)NCCC(=O)NS(C)(=O)=O)cc1 | 40
Cc1c(C(=O)NC[C@](C)(O)c2ccc(F)cc2F)cnn1C | 10
NC(=O)C1CCN(C(=O)Nc2nc(C(F)(F)F)cs2)CC1 | 7
COC(=O)Nc1nc(-c2ccccc2)c(-c2nc3ccccc3c(=O)n2-c2ccc(OC)cc2)s1 | 23
FC(F)(F)C(c1nc(Nc2nc(N3CCOCC3)nc(N3CCOCC3)n2)nc(C(C(F)(F)F)(C(F)(F)F)C(F)(F)F)n1)(C(F)(F)F)C(F)(F)F | 12
O=C(CS(=O)(=O)Cc1cc(Cl)c2c(c1)OCCCO2)NC1CCCCCC1 | -14
Cc1ccc(S(=O)(=O)NC(C)C)c(C)c1 | 10
CCCCN(CC)c1ncc(C(=O)Nc2ccc(OCC)cc2)c(N)n1 | 15
Clc1cccc(COc2ccccc2CNc2nc[nH]n2)c1 | -7
Cc1ccc(CC(=O)N2CCC(NC(=O)OC(C)(C)C)CC2C)o1 (stereo not drawn) | 5
CC[C@H](C)Oc1cccc(-c2nc(=O)c(CCC(=O)N3CCOCC3)n[nH]2)c1 | 10
C[C@H](NC(=O)c1ccco1)c1nc(-c2ccc(=O)n(C)c2)no1 | 12
CCC1CN(CCCN2C(=O)CNC2=O)CCC1c1ccccc1 (stereo not drawn) | 4
CCc1cc(N2C[C@@H]3NC(=O)CN(C)Cc4ccc(OC)c(c4)Oc4cccc(c4)CO[C@H]3C2)nc(N(C)C)n1 | 38
